# Measured values as given in PubChem BioAssay AID504333 (National Center for Advancing Translational Sciences (NCATS), 2011).
# Several values for one entry are separate records, joined by “and”; a condition that tells them apart may be missing. Equal values may be shown once. Out of some 360,000 compounds screened, about 16,000 (4.4%) were called active. Inconclusive means that the source gave no clear call. Such entries were picked first, then a sample of the others. The call rests on the fitted dose curve; in most records, active means well fitted inhibition curve with a large enough effect; inconclusive means small, poorly fitted or top-dose-only effect; inactive means no such curve, though single readings can be large or run the other way. Potencies of inconclusive entries are doubtful fits and often do not repeat.
# Target: Bromodomain adjacent to zinc finger domain protein 2B (Homo sapiens) (UniProt Q9UIF8)
# Assay: qHTS Assay for Inhibitors of BAZ2B; further: nearly all actives have a fitted effect of over 60% in size
# Settings: AlphaScreen BAZ2B-H3K14Ac peptide displacement; series mostly up to 114 µM
# How it was run: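 BAZ2B 50 nM plus b-H3(5-23)K14Ac 50 nM, PBS pH 7.4/0.01% Tween-20, 30 min RT; compound added (max 110 uM), 30 min RT; streptavidin donor/Ni-chelate acceptor beads 10 ug/mL final, 20 min dark; AlphaScreen read.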
# Potency means the concentration at half of the fitted maximal effect; tags describe the fitted curve by direction and shape.
# UniProt Q9UIF8, sequence (Q9UIF8 whole entry, looked up, the tested form may be a part): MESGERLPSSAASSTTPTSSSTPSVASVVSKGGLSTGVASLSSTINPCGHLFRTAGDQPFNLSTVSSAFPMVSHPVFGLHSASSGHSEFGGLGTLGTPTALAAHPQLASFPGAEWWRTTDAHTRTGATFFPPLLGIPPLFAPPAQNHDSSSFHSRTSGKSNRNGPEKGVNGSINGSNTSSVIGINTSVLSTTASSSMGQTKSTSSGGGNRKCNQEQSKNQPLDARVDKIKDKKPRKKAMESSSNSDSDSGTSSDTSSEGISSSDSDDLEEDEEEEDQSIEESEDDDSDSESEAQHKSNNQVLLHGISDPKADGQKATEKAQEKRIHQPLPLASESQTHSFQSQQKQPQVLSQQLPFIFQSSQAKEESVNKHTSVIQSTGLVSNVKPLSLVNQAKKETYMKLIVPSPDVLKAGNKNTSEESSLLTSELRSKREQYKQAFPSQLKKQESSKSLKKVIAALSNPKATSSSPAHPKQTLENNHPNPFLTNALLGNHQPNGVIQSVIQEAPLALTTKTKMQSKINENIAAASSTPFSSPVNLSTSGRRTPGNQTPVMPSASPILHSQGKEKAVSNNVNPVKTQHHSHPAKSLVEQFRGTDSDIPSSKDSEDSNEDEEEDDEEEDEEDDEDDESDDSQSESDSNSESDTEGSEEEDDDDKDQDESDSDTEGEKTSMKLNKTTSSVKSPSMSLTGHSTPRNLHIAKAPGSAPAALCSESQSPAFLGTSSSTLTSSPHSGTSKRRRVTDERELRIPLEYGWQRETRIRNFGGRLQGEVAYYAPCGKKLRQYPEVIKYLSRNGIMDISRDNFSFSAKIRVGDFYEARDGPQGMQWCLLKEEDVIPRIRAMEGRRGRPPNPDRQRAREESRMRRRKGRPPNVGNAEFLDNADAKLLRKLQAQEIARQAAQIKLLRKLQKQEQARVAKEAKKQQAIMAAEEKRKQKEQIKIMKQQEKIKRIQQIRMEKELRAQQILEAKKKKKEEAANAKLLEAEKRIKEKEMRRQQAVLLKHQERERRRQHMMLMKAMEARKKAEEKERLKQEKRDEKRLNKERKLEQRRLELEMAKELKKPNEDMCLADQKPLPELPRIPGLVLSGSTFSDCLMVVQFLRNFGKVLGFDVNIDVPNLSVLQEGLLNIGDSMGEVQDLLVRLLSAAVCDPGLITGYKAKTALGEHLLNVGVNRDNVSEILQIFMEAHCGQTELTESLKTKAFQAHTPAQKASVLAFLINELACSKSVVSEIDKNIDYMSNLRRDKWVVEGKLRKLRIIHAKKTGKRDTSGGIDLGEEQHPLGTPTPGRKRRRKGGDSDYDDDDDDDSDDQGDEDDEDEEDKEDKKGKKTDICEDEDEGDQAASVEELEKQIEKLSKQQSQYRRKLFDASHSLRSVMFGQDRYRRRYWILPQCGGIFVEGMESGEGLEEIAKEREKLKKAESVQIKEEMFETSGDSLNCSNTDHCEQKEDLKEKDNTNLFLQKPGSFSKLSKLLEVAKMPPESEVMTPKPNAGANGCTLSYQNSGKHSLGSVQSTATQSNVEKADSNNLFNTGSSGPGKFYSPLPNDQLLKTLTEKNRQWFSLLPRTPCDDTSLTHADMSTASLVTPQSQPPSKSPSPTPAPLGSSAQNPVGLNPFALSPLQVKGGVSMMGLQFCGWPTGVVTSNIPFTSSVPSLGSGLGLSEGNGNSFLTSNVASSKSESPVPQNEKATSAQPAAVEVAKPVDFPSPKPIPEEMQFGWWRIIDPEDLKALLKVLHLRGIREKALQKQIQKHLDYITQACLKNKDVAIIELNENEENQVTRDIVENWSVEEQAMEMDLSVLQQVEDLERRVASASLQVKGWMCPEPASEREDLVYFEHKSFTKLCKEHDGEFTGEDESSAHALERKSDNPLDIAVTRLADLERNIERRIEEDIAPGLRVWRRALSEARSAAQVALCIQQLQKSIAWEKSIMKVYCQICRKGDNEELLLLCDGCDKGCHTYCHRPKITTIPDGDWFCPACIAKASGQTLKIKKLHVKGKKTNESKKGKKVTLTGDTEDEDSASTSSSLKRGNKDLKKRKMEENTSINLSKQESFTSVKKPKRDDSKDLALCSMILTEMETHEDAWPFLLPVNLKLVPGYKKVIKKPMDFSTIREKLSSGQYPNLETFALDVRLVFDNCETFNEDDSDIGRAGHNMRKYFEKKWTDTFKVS
row,SMILES,Potency
1,Cc1ccn2c(=O)nc(SCC(=O)Nc3ccc4c(c3)OCO4)nc2c1,"inconclusive: 89.1 µM [inhibitor, single point]"
2,O=C1NCCN/C1=C\C(=O)c1ccccc1,"inconclusive: 25.1 µM [inhibitor, single point]"
3,Cc1[nH]n(-c2ccccc2)c(=O)c1N=Nc1ccc(Cl)cc1,"inconclusive: 1.41 µM [inhibitor, full curve, poor fit]"
4,COc1ccc(-n2cc(-c3ccccc3)nc2SC)cc1,"inconclusive: 39.8 µM [inhibitor, partial curve]"
5,COc1cccc(/C=C/C(=O)N2CCN(S(=O)(=O)c3ccccc3)CC2)c1OC,"inconclusive: 89.1 µM [inhibitor, single point]"
6,Cc1[nH]c2ccccc2c1C1(O)C(=O)N(Cc2ccccc2)c2ccc(Br)cc21 (stereo unspecified),"inconclusive: 28.2 µM [inhibitor, partial curve]"
7,COc1cc(/C=C2\COC/C(=C\c3cc(OC)c(OC)c(OC)c3)C2=O)cc(OC)c1OC,"inconclusive: 39.8 µM [inhibitor, partial curve]"
8,COc1ccccc1CNc1ncnc2onc(-c3ccc(Cl)cc3)c12,inactive
9,O=C(c1ccc(N2CCCC2)c([N+](=O)[O-])c1)N1CCN(c2ccccn2)CC1,"inconclusive: 39.8 µM [inhibitor, partial curve]"
10,O=C(O)CN1C(=O)/C(=C\c2cc(Br)ccc2OCc2ccc(Cl)cc2)SC1=S,active: 50.1 µM
11,CCOc1ccc(NC(=O)COc2ccccc2)c([N+](=O)[O-])c1,"inconclusive: 28.2 µM [inhibitor, partial curve]"
12,Cc1ccc2nc(-c3ccc(N4CCOCC4)cc3)c(Nc3ccccc3C)n2c1,active: 10 µM
13,COc1ccc(-n2c(COc3cccc(C)c3)nnc2SCC(=O)NCc2ccco2)cc1,"inconclusive: 70.8 µM [inhibitor, single point]"
14,O=C(N=Nc1c(O)[nH]c2ccccc12)c1cc(-c2cccs2)[nH]n1,active: 50.1 µM
15,C#CCOCCOCCOCCNc1nc(N2CCN(C(=O)[C@H]([C@@H](C)CC)n3cc([C@@H](N)Cc4ccc(O)cc4)nn3)CC2)nc(N2CCN(C(=O)[C@H](Cc3ccc(O)cc3)n3cc([C@@H](N)CC(C)C)nn3)CC2)n1,active: 56.2 µM
16,O=C(/C(C=Nc1cccc(C(F)(F)F)c1)=C(/O)c1ccco1)C(F)(F)F,"inconclusive: 89.1 µM [inhibitor, single point]"
17,COc1cc2c(cc1OC)C(C)N(C(=O)c1cccc([N+](=O)[O-])c1)CC2 (stereo unspecified),"inconclusive: 79.4 µM [inhibitor, partial curve]"
18,Cc1ccc(S(=O)(=O)Nc2cc(C(=O)NCCN(C)C)ccc2N2CCCC2)cc1,inactive
19,CN1CCN(C(=S)C(=O)Nc2ccc(Br)cc2)CC1,inactive
20,C=CCn1c(=O)c2c(nc3n2CC(C)CN3Cc2ccccc2)n(C)c1=O (stereo unspecified),"inconclusive: 70.8 µM [inhibitor, partial curve]"
21,Cc1ccccc1OCC(O)CN1CCN(CC(O)COc2ccccc2C)C(C)C1 (stereo unspecified),active: 22.4 µM
22,COc1cc(NC(=S)NCCc2ccccc2)c(OC)cc1NC(=O)CC(C)C,"inconclusive: 22.4 µM [inhibitor, full curve]"

row,SMILES,Potency
1,CC(=O)/C(=N/Nc1ccccc1)Sc1nnc(C(O)c2ccccc2)n1-c1ccccc1 (stereo unspecified),"inconclusive: 89.1 µM [inhibitor, single point]"
2,CC(=O)[C@@H]1[C@@H](C(=O)c2ccc(C)cc2)[C@]2(C(=O)Nc3ccccc32)[C@H]2C=Cc3cc(F)ccc3N12,"inconclusive: 50.1 µM [inhibitor, partial curve]"
3,COc1ccc(-n2nc3c(N4CCCC(C(=O)NCc5ccccc5C)C4)nnc(C)c3c2C)cc1 (stereo unspecified),active: 50.1 µM
4,Cc1cc(C(=O)Cn2cc(C(F)(F)F)ccc2=O)c(C)n1-c1ccccc1,"inconclusive: 79.4 µM [inhibitor, single point]"
5,N#CC1(NC(=O)COC(=O)c2cc(=O)[nH]c3ccccc23)CCCCC1,inactive
6,c1ccc(CSc2nc3ccccc3[nH]2)cc1,inactive
7,Cc1ccc(NC(=O)C2CCCN2C(=O)NC2CCCCC2)cc1 (stereo unspecified),"inconclusive: 100 µM [inhibitor, partial curve]"
8,COc1cccc(C2C(C(=O)OC(C)C)=C(C)N=c3s/c(=C\c4ccc(C(=O)O)cc4)c(=O)n32)c1 (stereo unspecified),"inconclusive: 79.4 µM [inhibitor, single point]"
9,CCSC1=N/C(=C\c2ccc(C(=O)O)cc2)C(=O)S1,"inconclusive: 89.1 µM [inhibitor, single point]"
10,COc1ccc2c(N)c(C(=O)NN)[nH]c2c1,"inconclusive: 79.4 µM [inhibitor, single point]"
11,O=C(CCN1CCN(C(c2ccccc2)c2ccccc2)CC1)N/N=C/c1ccc(O)cc1,"inconclusive: 70.8 µM [inhibitor, single point]"
12,NS(=O)(=O)c1ccc(NC(=O)COC(=O)CCc2c[nH]c3ccccc23)cc1,"inconclusive: 70.8 µM [inhibitor, single point]"
13,COC(=O)c1ccc(C(=O)Nc2ccc3c(c2)C(=O)NC3=O)cc1,"inconclusive: 89.1 µM [inhibitor, single point]"
14,COc1cccc(C2C=C(c3ccc(C)cc3)Nc3c(C(=O)Nc4ccc(F)cc4)cnn32)c1OC (stereo unspecified),"inconclusive: 35.5 µM [inhibitor, single point]"
15,CCOc1ccc(NC(=O)CSc2oc(-c3ccco3)nc2S(=O)(=O)c2ccc(Cl)cc2)cc1,"inconclusive: 89.1 µM [inhibitor, single point]"
16,CC1=C(C#N)c2nc(N)c(C#N)c(C)c2/C1=C\c1ccc(-c2ccccc2C(=O)O)o1,active: 12.6 µM
17,N#C/C(=C(/O)c1ccc2c(c1)OCO2)c1nc2cc(C(F)(F)F)ccc2s1,"inconclusive: 56.2 µM [inhibitor, partial curve]"
18,CC(C)(C)c1cc(CNC2CS(=O)(=O)C[C@@H]2O)cc(C(C)(C)C)c1O (stereo partly specified),"inconclusive: 70.8 µM [inhibitor, single point]"
19,COc1ccc(CN(C(=O)c2ccc(OCC(C)C)cc2)C2CCS(=O)(=O)C2)cc1 (stereo unspecified),"inconclusive: 70.8 µM [inhibitor, single point]"
20,Cc1c(C)c2c(OCC(=O)NCC(=O)NCC(=O)O)cc3c(c2oc1=O)CCC(C)(C)O3,inactive
21,Cc1ccccc1CN1CCN(C(=O)c2cccc3ccccc23)CC1,active: 56.2 µM
22,COc1ccccc1Nc1nc(-c2sc(NC(=O)c3ccc([N+](=O)[O-])cc3)nc2C)cs1,"inconclusive: 39.8 µM [inhibitor, partial curve]"

row,SMILES,Potency
1,CC1CCCc2sc3ncn(N)c(=N)c3c21 (stereo unspecified),"inconclusive: 79.4 µM [inhibitor, single point]"
2,O=C(C[n+]1ccccc1)N/N=C/c1ccc(C(=O)O)cc1,active: 79.4 µM
3,CN(C)S(=O)(=O)N(CC(=O)Nc1ccccc1C(F)(F)F)c1ccccc1,"inconclusive: 39.8 µM [inhibitor, partial curve]"
4,O=C1CCN(C(=O)Nc2cccc(Cl)c2)N1,inactive
5,COc1ccc(NC(=O)N2CCCc3cc(C)ccc32)c(OC)c1,"inconclusive: 39.8 µM [inhibitor, partial curve]"
6,CCOC(=O)N1CCc2c(sc(NCc3ccc(N(C)C)cc3)c2C(=O)Nc2ccccc2OCC)C1,active: 8.91 µM
7,COc1ccc(C(=O)NNC2=NS(=O)(=O)c3ccccc32)cc1OC,"inconclusive: 39.8 µM [inhibitor, single point]"
8,CCOC(=O)C(C)N1C(=O)S/C(=C/c2cc(C)n(-c3ccncc3)c2C)C1=O (stereo unspecified),"inconclusive: 50.1 µM [inhibitor, partial curve]"
9,COc1ccccc1NCC(O)Cn1c2ccccc2c2ccccc21 (stereo unspecified),active: 39.8 µM
10,O=C(/C=C/c1ccc(Br)cc1)NC(=S)NNC(=O)c1ccco1,inactive
11,CN1CCC(N(C)CC(=O)Nc2cccc(Oc3ccccc3)c2)CC1,active: 50.1 µM
12,COc1ccccc1N1CCN(S(=O)(=O)c2c(C)ccc3nsnc23)CC1,"inconclusive: 79.4 µM [inhibitor, single point]"
13,Cc1cc(-c2ccccc2)nc2cc(C(=O)Nc3ccc(Cl)c(Cl)c3)nn12,"inconclusive: 79.4 µM [inhibitor, partial curve]"
14,COc1ccccc1NC(=O)CSc1ncc(CO)n1Cc1ccc(F)cc1,"inconclusive: 70.8 µM [inhibitor, single point] and inconclusive: 79.4 µM [inhibitor, partial curve]"
15,CC(C)(C)c1ccc(C(=O)NC(=S)NNC(=O)COc2ccccc2)cc1,"inconclusive: 70.8 µM [inhibitor, single point]"
16,Cc1occc1C(=O)NC(C)C(C)(C)C (stereo unspecified),inactive
17,O=C(Cc1ccccc1)NN1C(=O)c2ccccc2C1=O,inactive
18,CCn1c(=O)c(C(=O)CN2CCCc3ccccc32)c(N)n(Cc2ccccc2)c1=O,"inconclusive: 31.6 µM [inhibitor, full curve]"
19,CC(C)c1cnc2c(c1SCC(=O)c1ccc(Cl)cc1)c(=O)n(C)c(=O)n2C,inactive
20,O=C(Cc1ccc(F)cc1)Nc1nc(-c2ccc(F)cc2)cs1,inactive
21,O=C(NCCCn1ccnc1)c1cc(-c2ccc(Cl)cc2)nc2ccccc12,"inconclusive: 50.1 µM [inhibitor, partial curve]"
22,FC(F)Oc1ccc(-c2csc(=Nc3cccnc3)n2CC2CCCO2)cc1 (stereo unspecified),active: 44.7 µM
